{
  "source": "paper PMC4336329",
  "about": "(PLoS ONE, 2015)",
  "note": "Out of some 310,000 compounds screened, about 14,000 (4.5%) showed an effect of 50% or more. The effect is printed as a negative number. The list shows a part of the results.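 Also: peak tail current of the secondary pulse compared with the same well before compound.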",
  "data": [
    {"biological_target": "human ether-à-go-go-related gene (hERG) potassium channel (human, UniProt Q12809)", "sequence (Q12809 whole entry, looked up)": "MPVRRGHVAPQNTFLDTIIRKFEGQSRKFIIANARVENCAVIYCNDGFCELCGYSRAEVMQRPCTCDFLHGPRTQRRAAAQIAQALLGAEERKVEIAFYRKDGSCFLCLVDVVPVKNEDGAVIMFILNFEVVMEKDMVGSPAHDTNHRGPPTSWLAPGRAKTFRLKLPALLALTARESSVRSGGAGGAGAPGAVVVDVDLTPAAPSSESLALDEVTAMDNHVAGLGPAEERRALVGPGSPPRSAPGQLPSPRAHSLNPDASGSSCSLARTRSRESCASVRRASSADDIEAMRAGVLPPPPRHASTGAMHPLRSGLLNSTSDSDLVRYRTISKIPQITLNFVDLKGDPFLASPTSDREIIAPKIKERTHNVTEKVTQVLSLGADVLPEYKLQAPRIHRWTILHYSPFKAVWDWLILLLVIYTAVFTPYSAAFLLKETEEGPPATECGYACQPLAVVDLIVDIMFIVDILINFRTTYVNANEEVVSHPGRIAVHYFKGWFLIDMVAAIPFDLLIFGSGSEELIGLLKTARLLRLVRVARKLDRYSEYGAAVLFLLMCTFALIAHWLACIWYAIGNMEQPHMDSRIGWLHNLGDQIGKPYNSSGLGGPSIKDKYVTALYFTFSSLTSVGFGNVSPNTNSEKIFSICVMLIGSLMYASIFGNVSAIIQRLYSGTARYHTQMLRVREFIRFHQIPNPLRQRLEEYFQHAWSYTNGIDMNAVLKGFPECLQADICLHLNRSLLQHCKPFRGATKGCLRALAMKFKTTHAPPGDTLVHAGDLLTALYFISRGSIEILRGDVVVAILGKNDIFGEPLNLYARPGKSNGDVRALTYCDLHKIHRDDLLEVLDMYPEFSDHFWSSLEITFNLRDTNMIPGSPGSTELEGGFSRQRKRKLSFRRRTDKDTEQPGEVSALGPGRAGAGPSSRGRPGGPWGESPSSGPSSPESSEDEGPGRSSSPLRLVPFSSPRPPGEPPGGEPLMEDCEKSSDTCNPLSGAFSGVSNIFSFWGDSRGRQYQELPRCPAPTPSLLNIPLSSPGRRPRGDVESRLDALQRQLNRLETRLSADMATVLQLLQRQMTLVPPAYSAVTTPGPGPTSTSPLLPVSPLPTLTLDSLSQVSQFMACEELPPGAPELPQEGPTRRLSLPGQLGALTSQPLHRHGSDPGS", "experiment": "primary screen, population patch clamp on CHO cells stably expressing hERG", "units": {"hERG current change (%, negative = inhibition) at 10uM": "%"}, "values": [
      {"smiles": "CCN1CC(CN(C)Cc2cn(-c3ccc(C)cc3)nc2-c2cccc(C)c2)CC1=O", "note": "(stereo not shown)", "hERG current change (%, negative = inhibition) at 10uM": -60.5},
      {"smiles": "Cc1cc(Nc2ccccc2Cl)nc(-c2ccccc2O)n1", "hERG current change (%, negative = inhibition) at 10uM": 7.12},
      {"smiles": "COc1ccc(NC(=O)c2cc(-c3ccco3)on2)c(OC)c1", "hERG current change (%, negative = inhibition) at 10uM": 23.2},
      {"smiles": "CN(C)/C=C(\\C#N)S(=O)(=O)c1ccccc1", "hERG current change (%, negative = inhibition) at 10uM": 9.4},
      {"smiles": "O=C(O)C1C2C=CC(CC2)C1C(=O)O", "note": "(stereo not shown)", "hERG current change (%, negative = inhibition) at 10uM": 16.6},
      {"smiles": "O=C(Cc1ccc(-c2ccccc2)cc1)NNC(=S)NCc1ccco1", "hERG current change (%, negative = inhibition) at 10uM": 8.5},
      {"smiles": "Cc1cc(NC(=O)Cc2ccccc2)no1", "hERG current change (%, negative = inhibition) at 10uM": 3.97},
      {"smiles": "COCCn1c(N)c(N(Cc2ccccc2)C(=O)c2ccc(C#N)cc2)c(=O)[nH]c1=O", "hERG current change (%, negative = inhibition) at 10uM": -1.47},
      {"smiles": "CN(C)/C=C1\\C=C(c2ccccc2)OC1=O", "hERG current change (%, negative = inhibition) at 10uM": 14.1},
      {"smiles": "CCOc1cnc(C(=O)NNC(=O)c2ccccc2Br)o1", "hERG current change (%, negative = inhibition) at 10uM": 11},
      {"smiles": "FCCCOc1ccc(-c2nccc(-c3ccc(Cl)cc3)n2)cc1", "hERG current change (%, negative = inhibition) at 10uM": 17.3},
      {"smiles": "CCOCCCn1cnc2c([nH]c3cc(OC)ccc32)c1=O", "hERG current change (%, negative = inhibition) at 10uM": -12.5},
      {"smiles": "Cc1ccc(CSC2=NCCN2C(=O)C2CC2)cc1", "hERG current change (%, negative = inhibition) at 10uM": 0.327},
      {"smiles": "CCOC(=O)c1sc2ccccc2c1NC(=O)c1coc2ccccc2c1=O", "hERG current change (%, negative = inhibition) at 10uM": 1.75},
      {"smiles": "CN(Cc1ccco1)C(=O)Cn1c(=O)oc2cc(S(=O)(=O)NCc3ccccc3)ccc21", "hERG current change (%, negative = inhibition) at 10uM": -5.21},
      {"smiles": "CCCCc1ccc(NS(=O)(=O)N(C)C)cc1", "hERG current change (%, negative = inhibition) at 10uM": -4.03},
      {"smiles": "O=C(c1cnn(C(=O)c2cccc(S(=O)(=O)N3CCOCC3)c2)c1)c1cc(Cl)cc(Cl)c1O", "hERG current change (%, negative = inhibition) at 10uM": -44.5},
      {"smiles": "C=CCn1c(SCC(=O)NC2CCCc3ccccc32)nnc1-c1ccncc1", "note": "(stereo not shown)", "hERG current change (%, negative = inhibition) at 10uM": -14.5},
      {"smiles": "CCOc1ccc(-n2c(Cc3cc(=O)[nH]c(=O)[nH]3)nnc2SCC(=O)Nc2nnc(C)s2)cc1", "hERG current change (%, negative = inhibition) at 10uM": -40.1},
      {"smiles": "COc1ccc2c(c1)[nH]c1c(=O)n(/N=C/c3ccc(OC)c(CN4CCCCC4)c3)cnc12", "hERG current change (%, negative = inhibition) at 10uM": -64.3},
      {"smiles": "O=S(=O)(Nc1ccc(-c2nc3cccnc3s2)cc1)c1ccc(Cl)s1", "hERG current change (%, negative = inhibition) at 10uM": -3.47},
      {"smiles": "CCOc1cc(/C=N/Nc2nc3ccccc3[nH]2)cc(Br)c1OCC(=O)N(C)C", "hERG current change (%, negative = inhibition) at 10uM": -0.635},
      {"smiles": "Cc1cccc(NC(=O)C(=O)NCCc2c[nH]c3ccccc23)c1C", "hERG current change (%, negative = inhibition) at 10uM": 0.383},
      {"smiles": "CCCCN(C)CCNC(=O)CN1C(=O)CSc2ccc(S(=O)(=O)N3CCOCC3)cc21", "hERG current change (%, negative = inhibition) at 10uM": 2.2},
      {"smiles": "Cc1cccc(CN2CCN(Cc3ccc4nonc4c3)CC2CCO)n1", "note": "(stereo not shown)", "hERG current change (%, negative = inhibition) at 10uM": -35.6}
    ]}
  ]
}
